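1) Cells in 96-well plates. 2) Compound, 48 h, 5 concentrations. 3) Linear interpolation between surrounding doses. 4) Unreached endpoint = highest concentration. At the GI50, growth is halved.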 Calls of active or inactive are those of the source. Rule as the data show it: active = GI50 up to about 1.1 µM and inactive = higher. Bounds are passed on as bounds.

The assay concerns NCI-H322M. The experiment in a line: DTP human tumour cell line panel, 48 h.
For the compound `Cc1ccc(-n2cc(-c3ccc(Cl)cc3)c3c2N=CN2N=C(c4cccs4)NC32)cc1` (stereo not given), the GI50 – broadly, the concentration giving 50% growth inhibition – was inactive: 40.3 µM.
On to `Cc1ccc(C2=C(Cl)C(=O)C(c3ccc(C)cc3)=C(Cl)C2=O)cc1`, for which the GI50 was inactive: > 100 µM.
Then `N=C(N)N/N=C/c1c(-c2ccc(Cl)cc2)nc2sc(Cl)cn12`, with inactive: 1.63 µM; and `CNC(=O)c1nnn(C2CCCCC2)c1S`, with inactive: > 100 µM.
Then `O=C(NCc1cccnc1)NCc1cccnc1`, with inactive: > 100 µM; and `O=C1CSc2ccncc2N1`, with inactive: > 100 µM.
Then `O=C(NC(=O)c1cc(-c2ccccc2)n[nH]1)c1ccccc1`, with inactive: > 100 µM; and `CCO[C@@H]1CCC([S+]([O-])c2ccc(C)cc2)=CO1` (stereo not given in full), with inactive: > 100 µM.
With `COc1ccc(/C=N/N=C(\N)NO)c(OC)c1OC`, the GI50 was inactive: 15.9 µM.
Then `ClCc1nn(-c2ccccc2)c(CCl)c1CCl`, with inactive: 13.9 µM; and `COc1ccccc1NC(=O)CC(=O)n1nc(-c2ccccc2)c(/N=N/c2ccccc2[N+](=O)[O-])c1-c1ccccc1`, with inactive: > 100 µM; and `CCN(CC)CCn1nc(N)c2nc3ccccc3nc21`, with inactive: 25.5 µM.
`Cc1c(C(=O)Nc2ccc(Cl)cc2)nc(N)nc1-c1cccc(Cl)c1`: the GI50 is inactive: > 100 µM.
Take `CCOC(=O)N(C)C1(c2ccccc2)CCN(CCCC(=O)c2ccc(F)cc2)CC1`: the GI50 was inactive: 65.2 µM.
Then `O=C1c2cc(Cl)ccc2-n2c(noc2=O)C2CSCN12` (stereo not given), with inactive: > 100 µM.
Then `Nc1cccc2c1-c1c(cccc1[N+](=O)[O-])C2=O`, with inactive: > 100 µM.
With `COc1cc(NCc2ccc3nc(OC)c(OC)nc3c2)cc(OC)c1OC`, the GI50 was inactive: 70.8 µM.
`O=C(/C=C/c1ccccc1F)c1ccc([N+](=O)[O-])cc1`: the GI50 was inactive: 48.9 µM.
As for `Cc1nc(C)c(C(=O)NNC(=O)Cc2ccccc2)cc1C(=O)NNC(=O)Cc1ccccc1`, the GI50 is inactive: > 100 µM.
Then `N=c1c2c3n(c4c(=O)n(-c5ccccc5)c(=S)n(c(=O)n1-c1ccccc1)c24)CCCCC3`, with inactive: > 100 µM; and `COc1ccc2c(c1)[n+]([O-])c(-c1ccc(Br)cc1)c(N)[n+]2[O-]`, with inactive: 28.6 µM.
Then `N#CCC(=O)N1CCCOCCC1`, with inactive: > 100 µM.
Then `COC(=O)C1=C(C)N(NC(N)=O)C2(N)N(NC(N)=O)C(C)=C(C(=O)OC)C12C(=O)OC` (stereo not given), with inactive: > 100 µM; and `C#CCOC(=O)C(N)CSSCC(N)C(=O)O` (stereo not given), with inactive: > 100 µM.
As for `CS(=O)(=O)Nc1ccc2c(c1)N(S(C)(=O)=O)CC2COS(C)(=O)=O` (stereo not given), the GI50 was inactive: > 100 µM.
Then `CCOC(=O)N/N=C(/N)c1cccc(Br)c1`, with inactive: > 100 µM.
Then `Cc1cc(CC(O)(C(F)(F)F)C(F)(F)F)cc(CC(O)(C(F)(F)F)C(F)(F)F)n1`, with inactive: 5.04 µM; and `CNC(=O)NCCN1CC2CCC(CC2)C1`, with inactive: > 10 µM; and `CCCN1C(=O)/C(=C(/O)C(=O)OCC)C(c2ccc(OC)c(OC)c2)C1=O` (stereo not given), with inactive: > 95.1 µM.
Then `COc1cc2c(c(OC)c1O)-c1ccc(SC)c(=O)cc1C(NC(C)=O)CC2` (stereo not given), with active: 0.0265 µM.
`Cc1c(C)c2c(c(N)c1C#N)C(=O)N(Cc1ccc(S(N)(=O)=O)cc1)C2=O`: the GI50 was inactive: > 100 µM.
Then `CCCCC(=C=C(C)CO)C1CCCN1C(=O)OC(C)(C)C` (stereo not given), with inactive: 23.4 µM; and `[N-]=[N+]=Nc1ccccc1Oc1ccccc1`, with inactive: > 100 µM.
Then `O=C(Nc1nc2ncn(CC(COc3ccccc3)OC(=O)c3ccccc3)c2c(=O)[nH]1)c1ccccc1` (stereo not given), with inactive: > 100 µM.
Then `COc1ncnc2c(Cl)c(C(O)c3ccccc3)c(Cl)cc12` (stereo not given), with inactive: 38.7 µM.
As for `COC(=O)c1ccccc1CC1Cc2cc3c(cc2C1)CCC3`, the GI50 was inactive: 97.3 µM.
Then `COc1cc2cc(C(=O)N3CC(CCl)c4c3cc(NC(=O)C(C)Nc3c([N+](=O)[O-])cc(C(=O)NCCN(C)C)cc3[N+](=O)[O-])c3ccccc43)[nH]c2c(OC)c1OC` (stereo not given), with active: 0.084 µM.
`Cc1ccc(CC(C)N)cc1` (stereo not given): the GI50 is inactive: > 100 µM.
Then `CC(=O)O[C@H]1CCC2[C@@H]3CC[C@]4(C)CC(=O)C=C[C@]4(C)C3CC[C@@]21C` (stereo not given in full), with inactive: 48.3 µM; and `CCOC(=O)[C@@H]1OC(c2ccccc2)O[C@H]1C(=O)OCC`, with inactive: > 100 µM.
Then `COc1cc(C(=O)N(C)N(C)C)cc(OC)c1OC`, with inactive: > 10 µM.
Then `COC(=O)c1cccc2c1Oc1ccccc1S2`, with inactive: > 100 µM.
As for `COc1ccc(-n2c(C)nc3ccc(NC4OC(COC(C)=O)C(OC(C)=O)C(OC(C)=O)C4OC(C)=O)cc3c2=O)cc1` (stereo not given), the GI50 was inactive: > 100 µM.
As for `NC(=O)COc1c(Br)cc(Br)cc1Br`, the GI50 is inactive: > 100 µM.
Then `CC(=O)N1N=C(c2ccc3ccccc3c2O)CC1C(=O)c1ccco1` (stereo not given), with inactive: 30.1 µM.
Then `C/C(Cl)=N/OC(=O)Nc1ccc(S(N)(=O)=O)c(C)c1`, with inactive: 30.8 µM.
On to `Cc1ccc(-c2c(C#N)c(-c3ccc([N+](=O)[O-])cc3)c(C#N)c(=O)n2NS(=O)(=O)c2ccc(C)cc2)cc1`, for which the GI50 is inactive: 49.7 µM.
Then `C=C(C)C12CC(COC(=O)c3ccccc3)C34OC5(OC1C3C1OC1(CO)C(O)C1(O)C(OC(=O)c3ccccc3)C(C)C(C(C)CCCCCCC5O)C14)O2` (stereo not given), with inactive: > 100 µM; and `CC(C)c1cc(C(C)C)c(S(=O)(=O)N=[N+]=[N-])c(C(C)C)c1`, with inactive: > 100 µM; and `COc1ccc(/C=N/Nc2nc3ccccc3c(=O)n2-c2ccccc2)cc1`, with inactive: > 100 µM.
Then `CCCCCCCCCc1c(O)c(O)c(CCCCCCCCC)c(CCCCCCCCC)c1CCCCCCCCC`, with inactive: > 100 µM; and `O=C1C=CC(=O)N1n1c(-c2ccccc2)n[nH]c1=O`, with inactive: > 100 µM.
Then `CCCCCCCCCCCCCCCCCC(=O)O[C@H](COC(=O)CCCCCCCCCCC)COC(=O)CCCCCCCCCCCCCCC`, with inactive: > 100 µM; and `CCCCCCCCCCCOC(=S)NC(C)C`, with inactive: 31.6 µM.
Turning to `CN(C)CC1CCC(CN(C)C)C(=O)C1=O` (stereo not given), the GI50 was inactive: 20 µM.
Then `COc1ccc2nc3c([N+](=O)[O-])ccc4c3c(c2c1)N=CN4CCN(C)C`, with inactive: 4.03 µM; and `O=C(O)c1c2c(cc3c1CC1(Cc4cc5c(cc4C1=O)CCC5)C3)CCC2` (stereo not given), with inactive: > 100 µM; and `COC(=O)[C@](NC(=O)OCc1ccccc1)([C@@H](C)[S+]([O-])c1ccc(C)cc1)C(F)(F)F` (stereo not given in full), with inactive: > 100 µM.
Consider `O=C1/C(=C/c2ccccc2)N=C(c2ccccc2)N1C1Nc2cc3c(cc2S1)NC(N1C(=O)/C(=C/c2ccccc2)N=C1c1ccccc1)S3` (stereo not given), for which the GI50 was inactive: 23.3 µM.
For the compound `CC(C)=CCC/C(C)=C/CC/C(C)=C/CC/C=C(\C)CC/C=C(\C)CCC1SC1(C)C` (stereo not given), the GI50 is inactive: > 100 µM.
For `CC(=O)Oc1cc2c(cc1OC(C)=O)OCC(c1ccc(C)cc1)C2` (stereo not given), the GI50 was inactive: 43.7 µM.
Then `S=C1N(/N=C/c2c3ccccc3cc3ccccc23)C(=N\c2ccccc2)/C(=N/c2ccccc2)N1c1ccccc1`, with inactive: > 100 µM; and `COc1ccc(NC(C)=O)c(C(O)CCNC(C)=O)c1` (stereo not given), with inactive: > 100 µM.
Then `O=C1C2=Cc3ccccc3OC2(O)Oc2cc(O)ccc21` (stereo not given), with inactive: > 100 µM; and `CCOC(=O)/C=C\C(C#N)(C#N)/N=C/c1ccsc1`, with inactive: 18.2 µM.
Then `NS(=O)(=O)c1cccc(NC(=S)NC(=O)Nc2ccc(Cl)c(Cl)c2)c1`, with inactive: 30.7 µM; and `O=C(NNc1ccccc1)/C(=C/c1ccc2c(c1)OCO2)NC(=O)c1ccccc1`, with inactive: > 100 µM.
As to `CCOC(=O)C1S/C(=N/c2ccc(Cl)cc2C)N=C1C` (stereo not given), the GI50 is inactive: 24.7 µM.
Take `CC(C)(C)OC(=O)N(CCCCNCc1ccc2ccccc2c1)CCCNCc1ccc2ccccc2c1`: the GI50 was inactive: 1.65 µM.
Then `O=C1c2ccccc2C(=O)N1C(=S)c1ccccc1`, with inactive: > 100 µM; and `CC1=C(N2CC2)C(=O)c2ccccc2C1=O`, with inactive: 2.34 µM; and `CC(C)C1CO[C@]2(C)CCC(=O)N12` (stereo not given in full), with inactive: > 100 µM.
Then `C=C1C(=O)OC2C[C@H](C)C3CC(=O)C(C)=C3CC12` (stereo not given in full), with inactive: 28.2 µM.
Then `CCCCOC(=O)C1C2CCC(O2)C1C(=O)OCCCC` (stereo not given), with inactive: 47.5 µM; and `CCOc1cc(C=O)c2c(ccc3ccc(OC)c(OC)c32)c1OC`, with inactive: > 100 µM; and `CCOc1cc(C2CC(c3ccc(NS(=O)(=O)c4cc([N+](=O)[O-])ccc4C)cc3)=NN2C(=O)c2ccccc2)ccc1O` (stereo not given), with inactive: 41.1 µM.
Regarding `COC(=O)/C(=N\NC(C)(C)C)C(C(=O)OC)C(=O)C(=O)Nc1cc(Cl)ccc1Cl` (stereo not given), the GI50 was inactive: > 100 µM.
Consider `C=CCSC1=N/C(=C\c2ccc(OC)cc2)C(=O)N1CC=C`, for which the GI50 is inactive: 54.5 µM.
Then `COc1ccc(CNC2=Nc3ccncc3S(=O)(=O)N2c2ccccc2)cc1`, with inactive: > 100 µM; and `O=[N+]([O-])c1ccc(N/N=C/c2ccc(OCCCCCCCCCCCO)cc2)c([N+](=O)[O-])c1`, with inactive: 35 µM; and `CCCCCCCCCCCCCP(=O)(O)OCC`, with inactive: > 100 µM.
Then `CCCCCCCCCCCCCCCCOCC(CC(F)(F)P(=O)(O)O)OC(C)=O` (stereo not given), with inactive: > 50 µM; and `C=C1C(=O)C[C@@]23CCC[C@@]12CC(O)C3` (stereo not given in full), with inactive: 29.6 µM; and `O=C(CCc1cc(O)cc(O)c1)NCCc1cc(O)cc(O)c1`, with inactive: > 100 µM.
Take `CC1=CC(=O)C(=C(C)C)CC1`: the GI50 was inactive: > 100 µM.

The record behind these values is ChEMBL document CHEMBL1201862, “PubChem BioAssay data set” (2004).
